Source: the supplement of paper PMC3334620
In all, about 33,000 sequences were measured (“E-score (-0.5 to 0.5)”: median about -0.043, highest 2% from about 0.37 on). The list shows a part of the results.

Biological target: T1, Upc2 (UniProt Q12151)
T1 sequence: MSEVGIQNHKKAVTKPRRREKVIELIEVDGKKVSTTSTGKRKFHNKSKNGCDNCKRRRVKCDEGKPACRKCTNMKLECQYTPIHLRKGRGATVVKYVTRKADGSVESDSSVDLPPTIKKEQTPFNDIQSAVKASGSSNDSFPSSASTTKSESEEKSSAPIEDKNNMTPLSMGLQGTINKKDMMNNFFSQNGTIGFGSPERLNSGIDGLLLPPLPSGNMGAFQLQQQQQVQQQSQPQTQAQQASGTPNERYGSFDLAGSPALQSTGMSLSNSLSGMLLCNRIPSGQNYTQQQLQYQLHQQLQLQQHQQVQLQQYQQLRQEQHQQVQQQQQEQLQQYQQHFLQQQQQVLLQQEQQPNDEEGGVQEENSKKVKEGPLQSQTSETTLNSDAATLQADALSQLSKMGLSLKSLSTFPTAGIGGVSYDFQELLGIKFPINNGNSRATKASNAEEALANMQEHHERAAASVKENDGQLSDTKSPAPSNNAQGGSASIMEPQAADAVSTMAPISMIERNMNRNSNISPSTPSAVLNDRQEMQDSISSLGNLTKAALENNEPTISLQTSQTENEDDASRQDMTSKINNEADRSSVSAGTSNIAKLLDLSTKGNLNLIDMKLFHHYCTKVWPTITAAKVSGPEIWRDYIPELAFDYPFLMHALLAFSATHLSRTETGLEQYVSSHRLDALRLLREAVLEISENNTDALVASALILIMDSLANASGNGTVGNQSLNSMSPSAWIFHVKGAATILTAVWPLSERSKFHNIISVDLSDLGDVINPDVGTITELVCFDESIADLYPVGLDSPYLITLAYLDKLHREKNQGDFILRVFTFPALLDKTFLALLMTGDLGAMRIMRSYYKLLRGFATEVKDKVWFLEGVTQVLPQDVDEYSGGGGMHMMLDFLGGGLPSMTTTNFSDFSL
Experiment: PBM E-score (8-mer binding enrichment) (E-score (-0.5 to 0.5)); higher = stronger / more preferred TF binding; most listed sequences are background and not binding sites
Conditions: protein concentration: 200 nM; construct: GST-full length
Summary of the method: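 For each ungapped eight-base word taken together with its reverse complement, the Universal PBM Analysis Suite assigned an E-score. Binding data came from GST-tagged yeast transcription factors, applied at about 100-200 nM, on universal all-10-mer Agilent arrays made double-stranded by primer extension. Fluorescent anti-GST marked bound protein, and scans were normalised with masliner.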

Sequence	PBM E-score
ACAACTAA	0.0963
ACTGACAA	-0.102
GCAAGTCA	-0.0503
AATTCAAA	0.147
ACCAAGGG	-0.0639
GGGTGTAA	0.0736
GGTCGCGA	0.174
AGGGTGCC	-0.267
ATAGTCAA	0.0265
GTGACATA	-0.168
CTCCAGAG	-0.263
CCTCCTAG	-0.31
AGGACTGG	-0.275
CCACAGCC	-0.144
CCCAGTCC	-0.189
CCCACTGA	-0.225
CACAAAGG	-0.0824
AGCAGACA	-0.213
ACGGACAT	0.185
GGACGCAC	-0.182
GTAGAATA	0.0114
TCCACGCA	0.0386
ACGTGACG	-0.059
CTAGCAAC	0.0763
CACGGAAA	0.00494

Sequence	PBM E-score
ATCACAAT	0.0131
TAGATGGA	-0.0969
GAGTCCGC	-0.28
AAGCCAGA	-0.2
AACCTAAT	-0.0308
ACTACCGA	-0.0594
ATTCCGCG	-0.07
AATATGAA	-0.16
CTGCCTGA	-0.158
CAGCTCGG	0.117
ACACGAAT	0.258
GTATCGGA	0.229
GCTACTTA	-0.0738
ACTAACGG	-0.0804
ATGGCGTA	0.22
GATAACAA	-0.134
GAAGACTA	-0.0458
GATGGCCC	-0.255
ACCGACCT	0.105
CTCCACGC	-0.159
CCCTAGTA	-0.0085
CATGGTGA	-0.0982
GCGTCCCC	-0.386
AGGGTGGC	-0.182
CGCTCGAG	-0.0469

Sequence	PBM E-score
CTACTCCA	-0.0741
GACTGAGA	0.0262
ACTCGCCT	-0.118
AACAGGAT	-0.16
GGGCCAAC	-0.262
CTTTGGCA	-0.148
AAAAGGAA	-0.0426
GACTCTGC	-0.122
GGAATGTA	0.114
CTACCTAA	-0.00333
AGCTGGAC	-0.129
AAAACTAC	0.137
CATGGCTC	-0.0993
CCCAGGGC	-0.304
GGTCAAAA	-0.016
CATGTGAA	-0.214
CCAATGTC	-0.114
ACCGGACC	0.15
CCCAACGA	0.088
ACCTTAGT	-0.0893
GACGACTC	-0.052
TAAGCAGA	-0.223
CCAACGCA	-0.144
AGTCGGCG	-0.179
GAAGTTTA	0.106

Sequence	PBM E-score
ACTCGTGC	0.0738
GAGGGATC	-0.133
ATGGCTCA	-0.1
AATGTCCT	-0.151
AGGTACTC	-0.029
ACCTGCGG	-0.147
CACGATCA	-0.0545
CGCATGCC	0.0548
AGCTGAAA	0.0112
AGGACTCA	-0.0854
AACCTGAC	-0.0225
AGACCTCA	-0.247
ACGTGTTG	0.116
CGTCCCAG	-0.321
GTAGGCCA	-0.201
AGATGCTC	-0.00243
CAGTGGCG	-0.244
CTCGCAGC	0.0159
CGACATAA	0.186
ACCGATGG	0.132
AGCTATAC	0.309
GAAGTTGC	-0.0637
ATCATCCG	0.132
TCGGCACA	-0.183
ACCCGGCT	-0.129

Sequence	PBM E-score
GACGGCCC	-0.0671
CCGAGTTA	0.0371
TCTGCACA	-0.141
GACTGTTA	-0.182
CTGTTCCA	-0.182
AAGCAGGC	-0.0981
AAACACTC	0.00727
AGGATCTC	-0.13
CTGCACAA	-0.231
CAACCGAC	0.144
AGCACACA	-0.268
ATGGGTGC	-0.143
CTTCGTGA	0.112
AGGAGTCC	-0.211
ACATTCAC	-0.138
ACGTTAAC	0.215
CGAAGATA	0.163
ATTTGATG	-0.0984
ACGCTCTG	0.0303
CCACCATA	-0.103
GTCTCCCA	-0.241
ATTGACTA	0.105
CCAGGGAG	-0.166
CTCTTGGA	-0.199
GAAATCTC	0.227

Sequence	PBM E-score
GGCCGTCA	-0.164
AGAAGGGG	-0.333
CATCCTTA	-0.0613
CCTGCGCG	-0.0152
CCGCCTCA	-0.189
ATGATATG	0.0923
GTGCACGA	0.0639
CAGAGAGG	-0.366
GGAGTGAC	-0.0854
CCTTCTCG	-0.115
ATCACCAC	0.0818
ATAAGGGC	-0.00783
ACTTAGCG	0.0959
AGGCAAAC	0.0314
GTCGAACA	0.111
ACTTTGAA	0.0741
CAGTAGTC	0.0468
CACCGCTC	-0.154
ACCCTGAT	-0.168
AACGATGG	0.391
ACAGAACT	-0.019
AATCTAAA	-0.0794
CTGATATC	-0.00928
AGATGAGA	-0.0597
GCAAGGAC	-0.135

Sequence	PBM E-score
GCACCTGA	-0.236
AAGACAAC	0.0666
GCGGAAAA	0.0574
AAGTCTAG	-0.0376
ACCATGAC	-0.0885
ACACAGTA	0.0483
ATTTGACC	0.0348
AGGTGACG	-0.152
AAGAGTCG	0.0777
CCCGAGAA	-0.0906
ATTGAACA	-0.0652
ATACCCAG	-0.192
CACGTCAC	-0.118
GGGATCCA	-0.193
CGTGTAGA	0.221
CAATATAA	-0.00384
TGCGAGCA	0.21
CGTACGGC	0.381
ATATAACG	0.0972
ACTGTATG	0.13
CGGCCAGA	-0.139
ACGGCTAG	0.0255
